Measured values: the RNAGym collection of RNA variant scans (doi:10.7554/elife.90254)
The source gives no read counts; variants with many changes may rest on few reads.

B1: LINE1-full (parent)
chain: UACGUAGGUGGUUUUCCCCUGAUAGUGCUAAGGGGGCCUGGAAGUUUGGACUGGGCAGAGCUCAACACAGCGUGGCAAAGUGGCUGUGGCUAGACUGCCUCUCUGGAUUCCUCGUCACUCAGCAGGGCAUCUCUGAGAGAAAUGCC

Variants of: B1
Test: self-cleavage, relative activity (ratio to wild type); higher = more cleavage; in vitro, sequencing; the parent is a self-cleaving ribozyme

| Variant | self-cleavage |
| --- | --- |
| A65G C76U U91C U109C | 0 |
| A65G C103A U112G A117U A142G | 0.06 |
| A65G C103A U134C A138G | 0.09 |
| A65G G75U U132G | 0 |
| A65G G86A U102A | 0.08 |
| A65G U73A A78G U112C A142U | 0 |
| A65G U73A A140G | 0.05 |
| A65G U73C A78G G88U | 0 |
| A65G U73C A78U | 0 |
| A65G U73C G75A A79U A142C | 0.04 |
| A65G U81A U109C U132C | 0 |
| A65G U85A U100C | 0 |
| A65G U85C U100C | 0.31 |
| A65G U87A A121G | 0 |
| A65G U87A U100C | 0.07 |
| A65G U87G A138G | 0.92 |
| A65G U91A G105U | 0.02 |
| A65G U96C A138G | 0 |
| A65G U100C A136U | 0 |
| A65G U100C U102C A117C U143A | 0 |
| A65G U102A U134C | 0 |
| A65G U108C C123U A141G | 0.04 |
| A65G U109C U115C U119A | 0 |
| A65G U109C U130C | 0 |

| Variant | self-cleavage |
| --- | --- |
| A65G U112C G125A | 0.04 |
| A65G U112C U130C A140G | 0 |
| A65G U115A U132A | 0.04 |
| A65G U119C C123U | 0.03 |
| A65U A67G U108C | 0.25 |
| A65U A67U U143C | 0.07 |
| A65U A78G A79G A138C | 0.12 |
| A65U A107G U119A U143C C146U | 0.16 |
| A65U C71G A78G A138G | 0.06 |
| A65U C98G C146U | 0.03 |
| A65U C103U A117G | 0 |
| A65U G75A U100A | 0.05 |
| A65U G80A A142C U143A | 0.07 |
| A65U G93U A124G | 0.02 |
| A65U U73C G127A | 0.29 |
| A65U U73C U102A G125A | 0.29 |
| A65U U85A A138G | 0.05 |
| A65U U87A U104C G114A | 0.02 |
| A65U U87G U143C | 0 |
| A65U U96A U132A | 0.04 |
| C66A C76U U81A | 0.02 |
| C66G U81C A141G | 0.04 |
| C66U A78G U81A A94G C98U U108A | 0.02 |
| C66U U87C A141G | 0.04 |

| Variant | self-cleavage |
| --- | --- |
| A67C G82U G106U | 0.03 |
| A67C U100C U102A U109C C113U | 0 |
| A67G A69G U81A U104A | 0.04 |
| A67G A69U A121U | 0 |
| A67G A77U A124C | 0.67 |
| A67G A78G A136G | 0.31 |
| A67G A78G A140G A141G | 0.21 |
| A67G A78G U85A | 0.14 |
| A67G A79G A138G | 0.86 |
| A67G A79G A142G | 0 |
| A67G A79G U81A | 0.72 |
| A67G A79G U119C | 1.45 |
| A67G A117U U134A | 0.37 |
| A67G A121G A138G | 1.07 |
| A67G A124G G137A | 0.34 |
| A67G A129G A140G | 1.15 |
| A67G A138G A142G | 0.63 |
| A67G C84G U100C C120U | 0.05 |
| A67G C90U U104C | 0.02 |
| A67G G72A U143C | 0.52 |
| A67G G80U U91C | 0 |
| A67G G93A A129U A138G | 0.02 |
| A67G G114U A124G | 0.3 |
| A67G U73A A124G A136G | 0.63 |

| Variant | self-cleavage |
| --- | --- |
| A67G U73A A140U | 0.51 |
| A67G U73A C113U A140G | 0.19 |
| A67G U73C A124G | 0.57 |
| A67G U73G A117G | 1.72 |
| A67G U85A U100A C111U | 0.07 |
| A67G U85C U100C | 1.25 |
| A67G U87A A92U | 0.08 |
| A67G U87A A121G | 0 |
| A67G U87A A142G | 0.28 |
| A67G U91A G122A G137U | 0.12 |
| A67G U96A A138G | 0.04 |
| A67G U96A U102A A129U U134C | 0 |
| A67G U96C G97A A140G | 0.03 |
| A67G U100C A121U A138G | 1.31 |
| A67G U102C A140G | 1.75 |
| A67G U104A A136G | 0.46 |
| A67G U108C U132C G139U | 1.61 |
| A67G U112C A124U U132C | 0.68 |
| A67G U130A A136G | 0.72 |
| A67G U130C A141G | 0.16 |
| A67U A69C A94G A142G | 0 |
| A67U A77U A129G | 0.03 |
| A67U A77U U85C U87A | 0.05 |
| A67U A77U U112C | 0.03 |

| Variant | self-cleavage |
| --- | --- |
| A67U A79G A107U | 0.13 |
| A67U A92G U112C A138U | 0.1 |
| A67U A107G A140G | 0.1 |
| A67U A129G U132C | 0.11 |
| A67U A138G U143C | 0.2 |
| A67U C116A U130A | 0.1 |
| A67U G83A U132C | 0.04 |
| A67U G126A A138G A142U | 0.11 |
| A67U U81A U102C | 0.07 |
| A67U U81G A94U U104C A129G U130A U134A | 0 |
| A67U U85A A117U | 0.02 |
| A67U U85A C116U | 0.02 |
| A67U U85C A94G U115A A141G | 0 |
| A67U U85C U91C A94G C120U A121G | 0 |
| A67U U87C A107G | 0.12 |
| A67U U96C U108C | 0.25 |
| A67U U96C U115C G122A G127A A140G | 0.01 |
| A67U U130C U132C | 0.26 |
| C68A U73C A92G U109C U112A A138G | 0 |
| C68U A69G G74A | 0.13 |
| C68U A77U U115A U119C | 0.23 |
| C68U U87C C116U | 0.06 |
| A69C U73A U96A U143C | 0.09 |
| A69C U109C A138U | 0 |

| Variant | self-cleavage |
| --- | --- |
| A69G A77G U102A U104A | 0 |
| A69G A77U A121G A141G | 0.18 |
| A69G A77U U109C A140G | 0 |
| A69G A78G C111U U132C A140G | 0.11 |
| A69G A78G C120A | 0.23 |
| A69G A78G U85A A121C A142G | 0 |
| A69G A78G U87C | 0 |
| A69G A78U A129G | 0.8 |
| A69G A78U C120A | 0.72 |
| A69G A78U U130A | 1.02 |
| A69G A92U U96C | 0 |
| A69G A107G U109A | 0 |
| A69G A121C A124U | 0 |
| A69G A121G G139A | 0.81 |
| A69G A121U A142C | 1.2 |
| A69G A124U A141G | 0.2 |
| A69G C76A A136G | 0.97 |
| A69G C113U A117U | 0.48 |
| A69G G106A A117U | 0.39 |
| A69G G139U A140G A142G | 0.76 |
| A69G U73C A138G | 0.53 |
| A69G U81G U115C | 0 |
| A69G U85A A121G U143C | 0.1 |
| A69G U85A U108C C146A | 0.1 |

| Variant | self-cleavage |
| --- | --- |
| A69G U87A A94U | 0.02 |
| A69G U87A U112G | 0.36 |
| A69G U91C A136U | 0.57 |
| A69G U91C A140U | 0 |
| A69G U96C A140U | 0.2 |
| A69G U96C U100A U112C U143A | 0 |
| A69G U100C U132A | 0 |
| A69G U102A A138G | 0.26 |
| A69G U102A U143C | 0.26 |
| A69G U104A U112C | 0.15 |
| A69G U109C A117U | 0.3 |
| A69G U109C A141C U143G | 0 |
| A69G U109C C113A A136U | 0.12 |
| A69G U115A A136G | 0.32 |
| A69G U115C A142G | 1.02 |
| A69G U119A A138U A141G | 0.98 |
| A69G U119C A138U A140G | 2.04 |
| A69G U119C U134A | 0.69 |
| A69U A78G A117U | 0.07 |
| A69U A78U A94G | 0.04 |
| A69U A79G U91C | 0 |
| A69U A79G U143C | 0.09 |
| A69U A92G A121U | 0.06 |
